{"source": "patent US8741893B2", "about": "“6,7-dihydro-[1,3,4]thiadiazolo-[3,2-a][1,3]diazepin derivatives and pharmaceutical compositions containing the same as hypnotic or anesthetic agent and method for their preparation” (priority 2011, dated 2014)", "key": {"mice [1]": {"system": "mice", "assay": "Potentiating effect to the non hypnotic dose of thiopental sodium", "details": "GS-62 0.06 mmole/kg, thiopental sodium 0.06 mmole/kg, i.p."}, "mice [2]": {"system": "mice", "format": "in vivo", "details": "98.0 mg/kg i.p. daily for 3 consecutive days", "experimental": "A group of 3 Swiss albino mice were used to conduct acute tolerance experiment. Each mouse received 0.4 mmol/kg of compound of formula 1 intraperitoneally, daily for 3 consecutive days. After each of the 3 administrations, the sleeping time-induced by the compound of formula 1 was recorded for each mouse. Representative example is shown in Example 7.\nAcute tolerance test was conducted following the intraperitoneal administration of GS-62 (Example 2, 98.0 mg/kg), daily for 3 consecutive days. […] The onset and sleeping time after the first administration of the compound were 6.7±0.2 and 87±10 min., respectively; while after the last administration of the compound were 5.7±0.5 and 70±10 min., respectively."}, "mice [3]": {"system": "mice", "assay": "Mechanism(s) of action of the hypnotic effect: reversal of induced sleep by receptor blockers", "format": "in vivo, Swiss albino mice", "details": "GS-62 0.4 mmole/kg i.p."}, "mice [4]": {"system": "mice", "assay": "Hypnotic activity, standard righting reflex method", "format": "in vivo, Swiss albino mice", "details": "for Induction of hypnosis: i.p., doses of 0.2-2 mmol/kg, mice"}}, "data": [{"smiles": "O=C1CCCN2N=C(c3ccccc3)SC2=N1", "note": "[GS-62, (E) 2-Phenyl-6,7-dihydro-[1,3,4]thiadiazolo[3,2-α][1,3]diazepin-8(5H)-one]", "values": [{"measurement": "Potentiation of one third of the minimal effective dose of thiopental sodium", "setting": "mice [1]", "result": "can potentiate"}, {"measurement": "Difference among sleeping times after first and last administration (acute tolerance)", "setting": "mice [2]", "result": "no significant differences"}, {"measurement": "Onset after the first administration", "setting": "mice [2]", "result": "6.7 ± 0.2", "unit": "min"}, {"measurement": "Onset after the last administration", "setting": "mice [2]", "result": "5.7 ± 0.5", "unit": "min"}, {"measurement": "Sleeping time after the first administration", "setting": "mice [2]", "result": "87 ± 10", "unit": "min"}, {"measurement": "Sleeping time after the last administration", "setting": "mice [2]", "result": "70 ± 10", "unit": "min"}, {"measurement": "Reversal of induced sleep by flumazenil", "setting": "mice [3]; flumazenil 1.2 mg/kg i.p. after 5 minutes of sleep", "result": "did not reverse the induced sleep"}, {"measurement": "Reversal of induced sleep by ketanserin", "setting": "mice [3]; ketanserin 3 mg/kg i.p. after 5 minutes of sleep", "result": "did not reverse the induced sleep"}, {"measurement": "Reversal of induced sleep by picrotoxin", "setting": "mice [3]; picrotoxin 32 mg/kg", "result": "no complete regaining of the righting reflex"}, {"measurement": "Time after picrotoxin at which attempts to regain the righting reflex were seen", "setting": "mice [3]; picrotoxin 32 mg/kg", "result": 5, "unit": "min"}, {"measurement": "Reversal of induced sleep by combination of picrotoxin and flumazenil", "setting": "mice [3]; picrotoxin 32 mg/kg + flumazenil 1.2 mg/kg, 5 minutes after induction of sleep, N=6", "result": "complete reversal of sleep and regaining of the righting reflex"}, {"measurement": "Onset and durations of sleep compared with thiopental sodium", "setting": "mice [4]; P<0.05, n=6", "result": "significantly greater"}, {"measurement": "Induction of hypnosis", "setting": "mice [4]", "result": "induced hypnosis"}]}, {"smiles": "CCCC(C)C1(CC)C(=O)NC(=S)NC1=O", "note": "(centres unmarked) [Thiopental Na, thiopental sodium, reference compound]", "values": [{"measurement": "Induction of hypnosis", "setting": "mice [4]", "result": "induced hypnosis"}]}]}
